88 compounds from PubChem BioAssay AID463173 (ICCB-Longwood Screening Facility, Harvard Medical School, 2010) can be followed below.

SMILES strings stand for the structures. The whole screen tested about 52,000 compounds, of which about 4,300 (8.3%) were called active. No stated cut-off is given here; in the data, active means survival mostly below about 52% (no sharp cut-off); inactive means mostly above about 56%. The list shows a part of the results.

For this assay, the system named is DeltatarO mutant. Nature of the assay: growth inhibition of S. aureus wild type versus tarO mutant, primary screen, teichoic acid synthesis inhibitors, RN4220, OD600 (AID 463173). Particulars: OD600, 18 h, active compounds read low, screened at 18.75 µg/mL (by protocol).
On to `COc1ccc(-c2nc(Cn3c(SCc4ccc(F)cc4)nc4cccnc43)c(C)o2)cc1`, for which the survival is inactive: 88%.
Take `COc1ccc(CNC(=O)C(OC(=O)c2cc3sccc3n2C(C)C)C(C)C)cc1` (stereo not drawn): the survival is inactive: 53%.
The result for `CCCn1c(N2CCN(C(=O)/C=C/C(=O)O)CC2)nc2ccccc21` reads inactive: 96%.
To `CC(=O)c1cccc(NC(=O)c2ccc3nc(C(C)C)oc3c2)c1` belongs inactive: 71%; to `COc1cc(NC(=O)CC(C)S(=O)(=O)c2cc3c4c(c2)CCN4C(=O)CC3)cc(OC)c1` (stereo not drawn), inactive: 67%.
The result for `Cc1ccccc1C(=O)Nc1cccc(C(=O)OCc2cc(=O)n3nc(C4CC4)sc3n2)c1` reads inactive: 79%; that for `CC(C)(C)c1cc(N=NC(=O)c2ccco2)cc(C(C)(C)C)c1O`, inactive: 91%.
With `COc1ccc(Cn2c(CO)cnc2SCC(=O)NCc2ccco2)cc1`, the survival is active: -5%.
To `Cc1ccc(C)c(CN2C(=O)c3ccccc3Sc3ccc(C(=O)NCc4ccc5c(c4)OCO5)cc32)c1` belongs inactive: 89%; to `O=C(Cn1nc(-c2ccc3c(c2)OCCO3)ccc1=O)Nc1cccc2cccnc12`, inactive: 88%.
To `COc1cc2ncc3c(-c4ccccc4)nn(-c4ccc(C)cc4)c3c2cc1OC` belongs active: 47%.
To `CC(C)c1ccc(NC(=O)C(Cc2ccccc2)NS(=O)(=O)c2ccc3c(c2)CCC(=O)N3)cc1` (stereo not drawn) belongs inactive: 64%; to `COc1cccc(CNC(=O)CN(C)S(=O)(=O)c2ccc3c(c2)c(=O)n(C)c(=O)n3C)c1`, inactive: 90%; to `Cn1nnnc1SCCNCc1ccccc1Cl`, inactive: 71%.
For `Cc1ccc(OCC(=O)Nc2ccc3nc(SCC(=O)N(C)c4ccccc4)sc3c2)cc1`, the survival was inactive: 71%.
To `CCOC(=O)c1cc(-c2ccc(OC)cc2)nn1Cc1ccccc1` belongs inactive: 66%.
To `Cc1ccc(CSc2nc3c(c(=O)[nH]2)C(c2cccc(F)c2F)CC(=O)N3)cc1` (stereo not drawn) belongs inactive: 94%; to `CC(C)(CO)NC(=O)C1CC(c2c(F)cccc2Cl)=NO1` (stereo not drawn), inactive: 96%.
To `COc1ccc(N2CCN(C(=O)c3nn(-c4ccc(C)cc4)c(=O)n(C)c3=O)CC2)cc1` belongs inactive: 71%.
Turning to `Cc1ccc(Cn2c(C)c(CNCc3ccc(OC(C)C)cc3)c(C(=O)O)c2C)cc1`, the survival is inactive: 121%.
To `CCCCOc1ccc(C(=O)N(Cc2nc(-c3ccc(Cl)cc3)no2)C(C)C)cc1` belongs inactive: 59%; to `CCOc1ccc(CCNC(=O)c2ccc(CS(=O)Cc3ccc(Cl)cc3)o2)cc1` (stereo not drawn), inactive: 51%; to `Cn1c(=O)oc2cc(S(=O)(=O)N3CCC(C(=O)N4CCN(c5cccc(Cl)c5)CC4)CC3)ccc21`, inactive: 82%.
The result for `CN1CCc2c(sc3c2C(=O)NC(c2ccc(OC(=O)c4ccc(Cl)cc4)cc2)N3)C1` (stereo not drawn) reads inactive: 58%.
`CC(=O)N1CCc2cc(Br)cc(S(=O)(=O)CCC(=O)NCCc3ccc(Cl)cc3)c21`: the survival is active: 44%.
For the compound `CCC1Oc2ccc(C)cc2N(CC(=O)Nc2ccc3c(c2)OCCO3)C1=O` (stereo not drawn), the survival is inactive: 104%.
As to `N#C/C(=C\c1ccc(-c2ccc(C(=O)O)cc2)o1)c1nc2ccccc2[nH]1`, the survival is inactive: 77%.
The result for `COc1ccc(Cl)cc1NC(=O)Cn1cc(S(=O)(=O)Cc2cccc(Cl)c2)c2ccccc21` reads inactive: 83%; that for `CCc1ccccc1Nc1nn2c(=O)c3ccc(C(=O)NCc4ccccc4Cl)cc3nc2s1`, inactive: 99%.
To `CCCN1C(C(=O)c2ccccc2)=C(OC(=O)c2ccc(C)cc2)c2ccccc2S1(=O)=O` belongs inactive: 52%.
The result for `Cc1cccc(NC(=O)CSc2nc(=O)n(Cc3cccnc3)c3c2CCC3)c1` reads inactive: 107%; that for `COc1ccc(NC(=O)c2c(C)oc3ccc(O)c(CN4CCOCC4)c23)cc1`, inactive: 81%.
For `CCc1nnc(NC(=O)CC2CC3CCC2C3)s1` (stereo not drawn), the survival was inactive: 64%.
The result for `O=C(COc1ccc(Cl)cc1)NCCc1csc(-c2cccc(F)c2)n1` reads inactive: 99%.
The result for `CCOc1ccc(NC(=O)c2oc3ccccc3c2NC(=O)Cc2cccc(C)c2)cc1` reads inactive: 88%.
With `COc1ccc(OC)c(NS(=O)(=O)c2ccc(Br)s2)c1`, the survival was active: 37%.
The result for `COc1ccc(C(=O)Oc2ccc(C(c3c(C)[nH][nH]c3=O)c3c(C)[nH][nH]c3=O)cc2OC)cc1` reads inactive: 71%; that for `Cc1ccc(NC(=O)CSc2nc(-c3ccco3)cc(C(F)(F)F)n2)cc1C`, active: 33%; that for `O=C(COCc1cc(-c2ccco2)on1)Nc1cccc(Cl)c1Cl`, active: 32%.
Consider `Cc1ccc(NC(=O)c2nc(-c3ccncc3)no2)c(Cl)c1`, for which the survival was inactive: 108%.
The result for `COc1ccc(C2N3CC4(C)CN2CC(c2ccccc2)(C3)C4=O)cc1` (stereo not drawn) reads inactive: 91%; that for `CCOc1ccccc1-n1nnc(S(=O)(=O)c2ccc(C)cc2)c1N`, inactive: 72%; that for `CC(=O)NC1C(OC2CCCCC2)OC(CO)C(O)C1O` (stereo not drawn), inactive: 93%.
The result for `COc1cc(NC(=O)c2ncn(-c3ccccc3)n2)cc(OC)c1` reads inactive: 63%.
The result for `Cn1ncc(C(=O)N2CCN(c3ccccc3F)CC2)c1C1CCN(C(=O)OC(C)(C)C)CC1` reads inactive: 71%.
For the compound `CC(=O)c1ccc(NC(=O)CSc2nccn2Cc2ccc3c(c2)OCO3)cc1`, the survival was inactive: 102%.
The result for `Cc1cc(SCC(=O)NCc2ccc(F)cc2)nc(=O)[nH]1` reads inactive: 81%; that for `CCOC(=O)c1cccc(NC(=O)C2CCCN(S(=O)(=O)c3cc(Br)cc4c3N(C(=O)CC)CC4)C2)c1` (stereo not drawn), inactive: 83%; that for `COc1ccc(CN(C(=O)Cc2coc3ccc(C)cc23)C2CCS(=O)(=O)C2)cc1` (stereo not drawn), inactive: 67%.
On to `CCc1cccc(NC(=O)CCN2C(=O)c3ccccc3Sc3ncccc32)c1`, for which the survival is inactive: 67%.
On to `Cc1cc(=O)n2nc(N(C)CC(=O)NCc3ccc(Cl)cc3)sc2n1`, for which the survival was inactive: 92%.
For `CCOc1ccc(NC(=O)Cn2c(=O)oc3cc(S(=O)(=O)N4CCC(C)CC4)ccc32)cc1`, the survival was inactive: 113%.
To `O=C(NCC1CCN(Cc2ccc(F)cc2)CC1)c1cc2ccc3cccnc3c2[nH]1` belongs inactive: 80%; to `CCOc1ccc(NC(=O)CN2CCN(c3ccc(Cl)cc3)CC2)cc1`, inactive: 78%; to `O=C(c1cc(F)cc(F)c1)N1CCC(c2nc(-c3ccc(S(=O)(=O)N4CCCC4)cc3)no2)CC1`, inactive: 77%.
To `CC1(C)C/C(=N\O)c2cc3c(nc2C1)CCCC3` belongs inactive: 72%; to `COc1ccc(OC)c(CCNC(=O)c2cc3c(=O)n(C)c4ccccc4c3n2C)c1`, active: 43%; to `COC(=O)c1ccc([C@@H]2Nc3c(C)cc(C)cc3[C@@H]3C=CC[C@@H]32)cc1`, active: 51%.
To `CCc1nn(CC(=O)N2CCN(c3cccc(C)c3C)CC2)c(=O)c2cc3sccc3n12` belongs inactive: 134%; to `Cc1ccc(O)c(-c2n[nH]c3c2C(c2ccccc2F)N(Cc2ccco2)C3=O)c1` (stereo not drawn), active: 8%; to `CCC(=O)N1CCc2cc(S(=O)(=O)NC(CC(C)C)C(=O)NCc3ccc(C)cc3)ccc21` (stereo not drawn), inactive: 97%.
On to `CCCNC(=O)N1CCC(c2ccc3c(c2)OCO3)CC1`, for which the survival is inactive: 99%.
To `Cc1sc2ncn(CC(=O)N3CCN(c4ccc(F)cc4)CC3)c(=O)c2c1S(=O)(=O)N1CCN(c2ncccn2)CC1` belongs inactive: 57%.
To `Cc1cc2[nH]c(=O)c(=O)[nH]c2cc1S(=O)(=O)Nc1cccc(C(F)(F)F)c1` belongs inactive: 73%; to `COc1cccc(CNC(=O)CCS(=O)(=O)c2ccc3c(c2)CC(C)N3C(=O)C2CC2)c1` (stereo not drawn), active: 20%; to `COc1cc(Cl)c(C)cc1NC(=O)c1cc2c(s1)-c1c(C)cccc1OC2`, inactive: 90%.
The result for `O=C(Cn1c(=O)nc(-c2ccccc2)c2cc(Cl)ccc21)NCCc1ccccc1` reads inactive: 88%; that for `Cc1ccc(OC(=O)CSc2nnc(-c3cccs3)o2)c(C)c1`, inactive: 66%; that for `O=C(c1ccc([N+](=O)[O-])cc1)N1c2ncnn2C2(CCCCC2)[C@@H]2CCCC[C@@H]21`, inactive: 90%.
For `COc1ccc(Cl)cc1C(=O)NCc1nc(-c2cccc(C)c2)no1`, the survival was inactive: 48%.
The result for `CC1=C(C(=O)OC2CCCCCC2)C(c2ccc(Cl)cc2)CC(=O)N1` (stereo not drawn) reads inactive: 86%; that for `Cc1cc(C)c(NC(=O)Cc2ccc(-n3c(C)nc4cccnc43)cc2)c(C)c1`, inactive: 80%.
For `Cn1nnc2cc(NC(=O)NC3CCCCC3)ccc21`, the survival is inactive: 90%.
To `COc1ccc(CNC(=O)CS(=O)(=O)c2cccc3nsnc23)cc1` belongs inactive: 123%.
The result for `COc1ccc(N2CC(C(=O)N/N=C/c3ccccc3)CC2=O)cc1` (stereo not drawn) reads inactive: 108%.
As to `COc1cccc2[nH]c(C(=O)NCc3ccc4c(c3)CCN4C(=O)c3ccc(F)cc3)cc12`, the survival was inactive: 84%.
The result for `CCc1c(C)nc2nc(-c3ccccc3)nn2c1NCc1ccc(C)cc1` reads active: -4%; that for `COc1ccc(CNC(=O)c2ccc(-c3nc(CS(=O)c4ccc(C)cc4)c(C)o3)cc2)cc1` (stereo not drawn), inactive: 94%; that for `CC(C)OCCCn1c(=O)c2ccccc2n2c(-c3ccccc3F)nnc12`, inactive: 90%.
The result for `Cc1oc2ccc(O)c(CN3CCCC(C)C3)c2c1C(=O)Nc1ccccc1` (stereo not drawn) reads inactive: 85%; that for `COc1ccc2c(c1)c(=O)c(C(=O)c1ccc(Cl)cc1)cn2CC(=O)Nc1ccc2c(c1)OCCO2`, inactive: 96%.
To `O=C(CSc1cn(CCNC(=O)c2c(F)cccc2F)c2ccccc12)Nc1ccccc1F` belongs inactive: 55%.
With `NC(=O)/C=C/C(=O)Nc1ccc2c(c1)OCO2`, the survival is active: 33%.
The result for `N=c1oc2ccccc2cc1C(=O)Nc1ccccc1` reads inactive: 91%.
For the compound `Cc1ccc2nc(-c3ccco3)c(Nc3ccc4c(c3)OCCO4)n2c1`, the survival was inactive: 67%.
As for `CC(=O)Nc1ccc(NC(=O)C2Cc3ccccc3N2C(=O)c2ccccc2)cc1` (stereo not drawn), the survival is inactive: 77%.
To `COc1ccc(Cn2c(CCC(=O)Nc3ccccc3OC)nc3cccnc32)cc1` belongs inactive: 131%; to `COc1ccccc1CNC(=O)c1ccc(CSc2nc3ccncc3n2Cc2cccc(F)c2)cc1`, inactive: 72%.
